Assay results reported in publication PMC7568541, “Multivalent interactions drive nucleosome binding and efficient chromatin deacetylation by SIRT6” (Nature Communications, 2020).

Molecular target: T1, SIRT6 (full-length, His-tagged) (UniProt Q8N6T7)
T1 construct: SIRT6 (NAD+-dependent deacylase), full-length; 355 residues by the printed limits of the CTD (270–355); pQE80 vector; also called full-length SIRT6; wild-type SIRT6; source: E. coli BL21(DE3), purified (nickel chromatography, Heparin column)
Assay: fluorescence polarisation; fluorescence anisotropy of 100 nM SIRT6^(Py) titrated with unlabeled SIRT6; 20 mM Tris, 150 mM KCl, 2 mM MgCl2, 0.5 mM TCEP, 1% glycerol, pH 7.5; self-oligomerization constant
Conditions: both partners purified

Kd: 14 µM
B1: SIRT6 labeled with pyrene at cysteine 18 (enzyme)
chain: not shown
modifications: pyrene on cysteine 18
notes: SIRT6 with C320 mutated to serine so that only C18 is labelled; 60% labeling efficiency; C320S follows from 'we mutated either C18 or C320 to serine, leaving the other available'; also called SIRT6^(Py); source: E. coli BL21(DE3), purified (nickel chromatography, Heparin column), labelled with pyrene
